This is an account of results in ChEMBL document CHEMBL1961873, “Compounds: GSK PKIS; Assays: Nanosyn kinase panel” (2012).

For some assays here: Most of the strong results are listed elsewhere, so they are rarer here than in the full data. This is a selection; strong and weak results do not stand in their true shares.

Test [1] addresses Leukocyte tyrosine kinase receptor (Homo sapiens) (UniProt P29376). The settings on record: at 1 µM.
The target of test [2] is Tyrosine-protein kinase Lyn (Homo sapiens) (UniProt P07948). The conditions noted are these: at 0.1 µM.
For test [3] the target is unchanged. The conditions noted are these: at 1 µM.
Test [4] shares this target. The conditions noted are these: at 0.1 µM. The source holds these as a separate data set.
Test [5] has the same target. The settings on record: at 1 µM. This is another data set of the same source.
For test [6], the target named is T1, Tyrosine-protein kinase Mer (Homo sapiens) (UniProt Q12866).
T1 sequence (whole entry): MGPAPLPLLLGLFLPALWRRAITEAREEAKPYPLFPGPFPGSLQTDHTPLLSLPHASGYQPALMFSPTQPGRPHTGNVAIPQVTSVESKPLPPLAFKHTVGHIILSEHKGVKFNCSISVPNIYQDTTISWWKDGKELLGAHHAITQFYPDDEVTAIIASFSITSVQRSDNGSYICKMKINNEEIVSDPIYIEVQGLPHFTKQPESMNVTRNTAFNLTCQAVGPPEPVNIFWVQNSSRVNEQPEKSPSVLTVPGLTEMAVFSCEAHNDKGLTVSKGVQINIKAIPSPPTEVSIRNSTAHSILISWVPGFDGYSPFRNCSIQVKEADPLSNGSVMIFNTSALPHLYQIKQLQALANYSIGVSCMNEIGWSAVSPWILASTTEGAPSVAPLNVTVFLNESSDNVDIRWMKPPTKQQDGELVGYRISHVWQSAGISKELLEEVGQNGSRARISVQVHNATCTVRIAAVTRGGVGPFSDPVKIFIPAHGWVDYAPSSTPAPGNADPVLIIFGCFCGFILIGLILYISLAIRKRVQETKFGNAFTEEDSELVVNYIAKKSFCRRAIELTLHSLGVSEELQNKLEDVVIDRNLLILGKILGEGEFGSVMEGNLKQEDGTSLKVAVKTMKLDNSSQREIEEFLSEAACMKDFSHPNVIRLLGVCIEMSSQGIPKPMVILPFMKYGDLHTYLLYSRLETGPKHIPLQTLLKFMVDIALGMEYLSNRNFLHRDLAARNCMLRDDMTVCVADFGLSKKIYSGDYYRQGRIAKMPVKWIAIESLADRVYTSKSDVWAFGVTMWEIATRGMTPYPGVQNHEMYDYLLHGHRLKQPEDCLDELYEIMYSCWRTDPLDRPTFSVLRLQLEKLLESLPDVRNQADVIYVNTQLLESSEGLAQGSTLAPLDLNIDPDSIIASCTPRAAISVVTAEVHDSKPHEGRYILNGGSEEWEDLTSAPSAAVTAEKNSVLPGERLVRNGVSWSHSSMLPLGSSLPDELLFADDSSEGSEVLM
The settings on record: at 0.1 µM.

Test [7] concerns the target T1, Tyrosine-protein kinase Mer (Homo sapiens). The conditions noted are these: at 1 µM.
In test [8] the target is Hepatocyte growth factor receptor (Homo sapiens) (UniProt P08581). The conditions noted are these: at 0.1 µM.
Test [9] shares this target. The settings on record: at 1 µM.
The target of test [10] is T2, Muscle, skeletal receptor tyrosine-protein kinase (Homo sapiens) (UniProt O15146).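 Also: values are mean inhibition of MuSK from the GSK PKIS kinase screening panel.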
T2 sequence (whole entry): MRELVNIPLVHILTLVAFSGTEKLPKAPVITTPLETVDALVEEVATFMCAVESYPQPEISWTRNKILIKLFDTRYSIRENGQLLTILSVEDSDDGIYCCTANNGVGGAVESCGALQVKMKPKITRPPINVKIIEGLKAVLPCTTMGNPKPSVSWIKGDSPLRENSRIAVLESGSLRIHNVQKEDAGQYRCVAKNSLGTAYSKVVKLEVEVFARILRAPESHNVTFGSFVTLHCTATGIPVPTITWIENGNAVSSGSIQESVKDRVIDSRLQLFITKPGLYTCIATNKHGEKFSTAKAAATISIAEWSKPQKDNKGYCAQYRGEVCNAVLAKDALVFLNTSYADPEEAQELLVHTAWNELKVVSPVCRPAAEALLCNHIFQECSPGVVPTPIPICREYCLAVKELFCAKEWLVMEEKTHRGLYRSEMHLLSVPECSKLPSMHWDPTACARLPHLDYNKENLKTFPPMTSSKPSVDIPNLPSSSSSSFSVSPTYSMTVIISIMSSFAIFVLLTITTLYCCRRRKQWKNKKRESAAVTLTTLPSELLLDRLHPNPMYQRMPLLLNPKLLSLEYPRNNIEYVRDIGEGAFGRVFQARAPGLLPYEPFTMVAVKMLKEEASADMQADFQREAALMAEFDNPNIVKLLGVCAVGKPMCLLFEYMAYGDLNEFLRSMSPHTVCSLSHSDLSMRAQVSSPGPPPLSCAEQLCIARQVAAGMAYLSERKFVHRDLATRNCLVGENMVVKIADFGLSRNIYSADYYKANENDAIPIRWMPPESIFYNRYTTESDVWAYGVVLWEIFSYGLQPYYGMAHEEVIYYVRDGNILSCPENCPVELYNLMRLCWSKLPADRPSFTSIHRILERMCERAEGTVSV
The settings on record: at 0.1 µM.

Sequence of UniProt P29376 (P29376 whole entry): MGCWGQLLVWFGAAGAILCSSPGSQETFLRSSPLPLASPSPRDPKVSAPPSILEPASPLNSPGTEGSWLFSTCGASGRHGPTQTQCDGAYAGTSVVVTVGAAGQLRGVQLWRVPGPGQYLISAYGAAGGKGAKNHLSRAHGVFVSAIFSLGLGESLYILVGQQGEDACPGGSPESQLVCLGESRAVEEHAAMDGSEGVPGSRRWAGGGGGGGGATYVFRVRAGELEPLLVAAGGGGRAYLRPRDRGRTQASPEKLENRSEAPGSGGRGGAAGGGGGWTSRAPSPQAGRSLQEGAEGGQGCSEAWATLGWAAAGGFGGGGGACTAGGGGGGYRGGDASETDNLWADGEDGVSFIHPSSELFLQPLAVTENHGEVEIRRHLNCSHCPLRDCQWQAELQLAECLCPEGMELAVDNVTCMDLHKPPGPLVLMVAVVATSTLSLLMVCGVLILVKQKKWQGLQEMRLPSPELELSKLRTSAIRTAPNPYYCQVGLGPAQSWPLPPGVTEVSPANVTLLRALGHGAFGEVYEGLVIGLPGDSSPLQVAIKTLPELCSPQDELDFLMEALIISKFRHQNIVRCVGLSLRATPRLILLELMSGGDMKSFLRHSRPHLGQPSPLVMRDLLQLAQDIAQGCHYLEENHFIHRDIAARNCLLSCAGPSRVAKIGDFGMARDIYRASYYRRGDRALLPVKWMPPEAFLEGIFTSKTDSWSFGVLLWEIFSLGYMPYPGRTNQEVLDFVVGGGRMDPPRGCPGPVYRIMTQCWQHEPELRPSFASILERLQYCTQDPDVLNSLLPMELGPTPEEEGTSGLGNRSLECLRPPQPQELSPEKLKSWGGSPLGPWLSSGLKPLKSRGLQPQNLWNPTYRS
Sequence of UniProt P07948 (P07948 whole entry, looked up): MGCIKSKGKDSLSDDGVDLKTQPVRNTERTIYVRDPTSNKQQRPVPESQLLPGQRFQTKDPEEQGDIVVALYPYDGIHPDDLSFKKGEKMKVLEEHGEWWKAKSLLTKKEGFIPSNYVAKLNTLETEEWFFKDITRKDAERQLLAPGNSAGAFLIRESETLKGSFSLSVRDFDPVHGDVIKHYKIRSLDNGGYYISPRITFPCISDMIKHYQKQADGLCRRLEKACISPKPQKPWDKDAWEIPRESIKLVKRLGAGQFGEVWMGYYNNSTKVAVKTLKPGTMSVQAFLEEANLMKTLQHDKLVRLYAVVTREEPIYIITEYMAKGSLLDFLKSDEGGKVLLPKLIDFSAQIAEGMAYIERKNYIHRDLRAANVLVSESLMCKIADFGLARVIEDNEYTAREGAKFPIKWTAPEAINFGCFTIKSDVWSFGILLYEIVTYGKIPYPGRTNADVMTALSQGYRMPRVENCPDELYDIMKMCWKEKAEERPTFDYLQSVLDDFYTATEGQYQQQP
Sequence of UniProt P08581 (P08581 whole entry): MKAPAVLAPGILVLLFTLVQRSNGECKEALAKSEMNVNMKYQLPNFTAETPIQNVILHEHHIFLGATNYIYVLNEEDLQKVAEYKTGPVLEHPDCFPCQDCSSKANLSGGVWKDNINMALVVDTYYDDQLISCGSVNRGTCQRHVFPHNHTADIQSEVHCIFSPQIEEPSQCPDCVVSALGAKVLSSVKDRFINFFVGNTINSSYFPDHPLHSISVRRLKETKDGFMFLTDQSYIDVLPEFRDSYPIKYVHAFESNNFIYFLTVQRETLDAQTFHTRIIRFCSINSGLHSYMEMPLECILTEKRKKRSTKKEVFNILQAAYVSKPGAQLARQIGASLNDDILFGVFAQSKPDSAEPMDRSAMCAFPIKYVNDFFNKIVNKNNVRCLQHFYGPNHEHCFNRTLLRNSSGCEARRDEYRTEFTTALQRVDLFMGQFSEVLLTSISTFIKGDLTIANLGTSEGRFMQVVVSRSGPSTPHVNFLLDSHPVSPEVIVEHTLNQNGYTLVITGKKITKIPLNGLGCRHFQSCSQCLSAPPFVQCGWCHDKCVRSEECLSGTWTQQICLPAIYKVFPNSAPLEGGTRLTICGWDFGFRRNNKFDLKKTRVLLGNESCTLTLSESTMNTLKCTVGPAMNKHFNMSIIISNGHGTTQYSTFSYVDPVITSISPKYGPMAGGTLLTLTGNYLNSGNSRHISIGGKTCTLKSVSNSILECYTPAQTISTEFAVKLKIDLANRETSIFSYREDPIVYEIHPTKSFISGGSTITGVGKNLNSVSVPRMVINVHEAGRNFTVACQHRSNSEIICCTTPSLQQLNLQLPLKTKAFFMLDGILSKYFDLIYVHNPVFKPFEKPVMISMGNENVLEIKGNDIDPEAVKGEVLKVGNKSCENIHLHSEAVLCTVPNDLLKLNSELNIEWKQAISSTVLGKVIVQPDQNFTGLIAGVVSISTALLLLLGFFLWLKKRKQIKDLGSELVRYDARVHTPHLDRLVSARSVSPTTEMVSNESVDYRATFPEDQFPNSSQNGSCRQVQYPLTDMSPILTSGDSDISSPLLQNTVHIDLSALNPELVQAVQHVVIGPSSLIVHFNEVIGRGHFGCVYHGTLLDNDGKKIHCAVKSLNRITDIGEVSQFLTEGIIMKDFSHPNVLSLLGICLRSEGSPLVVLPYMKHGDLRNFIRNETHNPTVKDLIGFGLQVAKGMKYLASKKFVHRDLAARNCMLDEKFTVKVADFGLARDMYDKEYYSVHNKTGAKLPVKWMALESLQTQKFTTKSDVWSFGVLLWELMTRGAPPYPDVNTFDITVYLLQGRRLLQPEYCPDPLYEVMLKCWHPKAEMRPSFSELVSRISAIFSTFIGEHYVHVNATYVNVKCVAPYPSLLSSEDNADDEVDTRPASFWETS

Consider `O=C1NC(=O)C(c2ccccc2)=C1Nc1ccccc1`, for which the inhibition in test [1] is 8.17%; in [2] it was 5.54%; in test [3], 8.24%; in [4], 7.53%; in test [5], 5.49%; in test [6] it was 4.87%. For the same molecule, the inhibition in [7] turned out to be 2.47%; in [8], 2.55%; in test [9], 7.96%; in [10], 2.18%.

For the molecule `CC(C)(C)c1ccc(Oc2nccc(-c3c(-c4ccc(F)cc4)ncn3C3CCNCC3)n2)cc1`, the inhibition in test [1] amounted to 4.25%; in test [2] it was 4.8%; in test [3], 7.06%; in test [4] it was 2.74%; in [5], 4.08%; in [6] it was 1.05%. Further, the inhibition in [7] was 4.15%; in [8], 2.88%; in [9], 7.63%; in [10], 2.51%.

With `O=C1NC(=O)C(c2cccc([N+](=O)[O-])c2)=C1Nc1cc(Cl)c(O)c(Cl)c1`, the inhibition in test [1] is 1.2%; in [2] it was 2.51%; in test [3] it was 0.9%; in [4], 1.46%; in [5], 2.23%; in test [6], -0.43%. Further, the inhibition in test [7] was 0.18%; in test [8], 6.61%; in test [9] it was 6.2%; in test [10], 0.61%.

Consider `Fc1ccc(Oc2nccc(-c3c(-c4ccc(F)cc4)ncn3C3CCNCC3)n2)cc1`, for which the inhibition worked out at 2.49% in test [1]; 3.83% in [2]; 3.17% in [3]; 1.4% in test [4]; 2.26% in test [5]; 3.57% in [6]. Further, the inhibition in test [8] is 7.6%; in test [9], 2.64%; in [10], 1.5%.

For `COc1ccccc1C1=C(Nc2ccccc2)C(=O)NC1=O`, the inhibition in test [1] came to 3.44%; in test [2] it was 5.41%; in [3], 20.9%; in test [4], 3.14%; in test [5], 17.2%; in [6], 0.73%. Further, the inhibition in test [7] was 1.51%; in test [8], 3.31%; in [9], 7.23%; in test [10], 1.54%.

Take `CS(=O)(=O)c1ccc(Oc2nccc(-c3c(-c4ccc(F)cc4)ncn3C3CCNCC3)n2)cc1`: the inhibition in test [1] is 4.8%; in test [2] it was 5.75%; in test [3], 7.35%; in [4], 3.63%; in [5] it was 3.45%; in test [6] it was -0.14%. For the same molecule, the inhibition in test [7] amounted to 1.5%; in test [8], 5.26%; in test [9], 5.77%; in [10] it was 1.21%.

On to `Fc1ccc(-c2ncn(C3CCNCC3)c2-c2ccnc(Oc3cccc(F)c3)n2)cc1`, for which the inhibition is 3.34% in test [1]; 6.08% in test [2]; 6.98% in test [3]; 3.39% in test [4]; 4.79% in test [5]; 2.09% in test [6]. Further, the inhibition in test [8] is 9.18%; in test [9], 2.7%; in test [10] it was 3.69%.

On to `NC(=O)CCc1ccccc1Oc1nccc(-c2c(-c3ccc(F)cc3)ncn2C2CCNCC2)n1`, for which the inhibition is 0.47% in [1]; 0.19% in test [2]; -0.01% in test [3]; -0.13% in [4]; 1.03% in test [5]; -1.03% in test [6]. Besides, the inhibition is 0.4% in [7], 4.01% in test [8], -0.26% in test [9] and -0.09% in test [10].

Regarding `Fc1ccc(-c2ncn(C3CCNCC3)c2-c2ccnc(Oc3ccc(Cl)cc3)n2)cc1`, the inhibition in [1] is 0.46%; in [2] it was 0.7%; in test [3], 1.01%; in [4] it was 0.36%; in test [5] it was 0.75%; in [6] it was -0.42%. Moreover, the inhibition is 4.01% in test [7], 11.5% in test [8], -0.9% in test [9] and 2.45% in test [10].

As for `Cc1cccc(Oc2nccc(-c3c(-c4ccc(F)cc4)ncn3C3CCNCC3)n2)c1C`, the inhibition turned out to be 4.52% in [1]; 3.92% in [2]; 5.54% in test [3]; 2.25% in test [4]; 2.21% in test [5]; 0% in [6]. The inhibition came out at 2.26% in [7], 5.13% in test [8], 6.5% in test [9] and 2.7% in test [10].

Take `Fc1ccc(-c2ncn(C3CCNCC3)c2-c2ccnc(Oc3cccc(C(F)(F)F)c3)n2)cc1`: the inhibition in test [1] was 4.42%; in test [2], 5.95%; in [3], 6.82%; in test [4], 4.14%; in test [5], 4.77%; in test [6], -0.02%. Besides, the inhibition is -0.63% in test [7], 6.83% in [8], 6.95% in [9] and 1.84% in test [10].

For `O=C1NC(=O)C(c2ccccc2Cl)=C1Nc1cc(Cl)c(O)c(Cl)c1`, the inhibition is 4.91% in [1]; 4.92% in test [2]; 5.35% in test [3]; 3.29% in [4]; 4.88% in test [5]; 0.89% in test [6]. Also, the inhibition turned out to be 4.28% in test [7], 1.4% in [8], 7.88% in test [9] and 1.37% in [10].

In the case of `O=C(O)c1ccc(Oc2nccc(-c3c(-c4ccc(F)cc4)ncn3C3CCNCC3)n2)cc1`, the inhibition in test [1] was 4.51%; in test [2], 3.91%; in test [3] it was 4.1%; in test [4], -0.74%; in [5], 1.28%; in test [6], 0.67%. Moreover, the inhibition is 10.8% in [7], 2.19% in test [8], 1.71% in [9] and 1.88% in test [10].

As for `COc1ccccc1Oc1nccc(-c2c(-c3ccc(F)cc3)ncn2C2CCNCC2)n1`, the inhibition in test [1] turned out to be 3.32%; in [2] it was 6.36%; in test [3] it was 5.75%; in test [4], 3.05%; in [5] it was 3.76%; in test [6] it was 0.06%. For the same molecule, the inhibition came out at 19.6% in test [8], 8.14% in test [9] and 3.29% in test [10].

As a reminder, the inhibition is the drop in the measured response relative to a control, in per cent.
